For the test, the system named is NCI-H196 complex spheroid viability. In words: Anticancer human tumor NCI-H196 cell line growth inhibition [LSD1].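 Note: spheroids exposed to agents for 7 days before readout; 100% = DMSO vehicle control viability.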 Conditions: stronger effect = lower value. The source says: Multicellular complex tumor spheroid response to LSD1 Inhibitor Iadademstat in combination with a variety of drugs and investigational agents in selected tumor cell lines
The current study was undertaken to assess response to LSD1 inhibitors in combination with standard-of-care drugs and investigational agents in solid tumor complex spheroid models as well as in the K-562 leukemia. Complex spheroids include a stromal component modeled by human endothelial cells (HUVEC) and fibroblasts modeled by human mesenchymal stem cells (MSCs). The concentration ranges selected for each drug and investigational agent were based upon clinically achievable concentrations if the clinical Cmax of the agent was known.
Compounds. The drugs and investigational agents used in this study are listed on Table 1. All of the agents used, including staurosporine (NSC755774) and gemcitabine (NSC613327), were obtained from the Developmental Therapeutics Program, NCI. FDA-approved anticancer drugs are available from the NCI at http://dtp.nci.nih.gov/branches/dscb/oncology_drugset_explanation.html. Drugs and investigational agents were >95% pure by proton nuclear magnetic resonance (NMR) and liquid chromatography/mass spectrometry (LC/MS). Stock solutions were prepared at 400x in DMSO, stored at -70 degrees C, and diluted in fresh medium prior to their use. The final concentration of DMSO in cell culture wells never exceeded 0.25% (v/v). The FDA-approved anticancer drug set is available from the Developmental Therapeutics Program at https://dtp.cancer.gov/organization/dscb/obtaining/available_plates.htm. All drugs and investigational agents were tested over a range starting from a high concentration at or near the clinical Cmax and decreasing in half-log increments. If the clinical Cmax for an agent had not been determined, the highest concentration tested was 10 microM.
Cell Lines. […]

Certain results were filed several times, with different values. Only these are listed. An entry can have further records. Values that stand side by side are repeats across runs, samples, wells, individuals or studies. Brackets with × count equal records among those shown.

Regarding `NC1CC1c1ccc(-c2cccc(O)c2)cc1` (stereo not drawn), the viability, T/C (compound alone 3.16 µM) was 111, 92.7, 92, 104 (2×), 96.8, 108, 98.6, 96.1, 89.2, 100, 81.2, 98.9, 103 (2×), 101, 97, 90.2, 98.2, 107, 93.2, 102, 106, 97.3, 95.7% and the viability, T/C (compound alone 10 µM) is 97.6, 92.5, 93.2, 110 (2×), 91.9, 101, 96.5, 87, 94.6, 95.9, 84, 94.5, 108, 95.2, 87.6, 93.8, 91.6, 97.2, 92.1, 94.2, 99.6, 99.4, 98.1, 99.2%.
As to `NC1CCC(NC2CC2c2ccccc2)CC1` (stereo not drawn), the viability, T/C (compound alone 0.1 µM) is 94.8, 88.3, 89.1, 85.6, 93.4, 93.3, 115, 100 (2×), 94.9, 101, 94.2, 102, 96, 98.1, 107 (2×), 106, 97.3, 103, 104, 92.2, 97.4, 97.5, 98.6%.

The values above are taken from PubChem BioAssay AID1918958 (Molecular Pharmacology Branch, DTP, NCI, 2023).
